The source gives no read counts; variants with many changes may rest on few reads.
B1: CPEB3 Ribozyme (parent)
chain: UAACAGGGGGCCACAGCAGAAGCGUUCACGUCGCAGCCCCUGUCAGAUUCUGGUGAAUCUGCGAAUUCUGCUGUAUAUCUC

Variants of: B1
Test: self-cleavage, relative activity (ratio to wild type); higher = more cleavage; in vitro, sequencing
Summary of the method: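 Barcoded CPEB3 ribozyme mutants, produced by rounds of error-prone PCR, self-cleaved while being transcribed with T7 RNA polymerase for 5 hours at 37°C and during a subsequent 15 min DNase I step before EDTA was added. Sequencing of template-switched cDNA on Illumina gave cleaved and total reads, and DNA sequencing assigned barcodes to variants. Each variant's relative activity is its cleaved/total read fraction divided by the unmutated ribozyme's fraction, averaged across three batches. A variant needed a minimum of 5 reads.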

Variant	self-cleavage
A2G A13C U25C U49C G70A	0.22
A2G A18U A56G U67A	0.19
A2G A20U U26C U43A	0.45
A2G A20G U26C U31C U43C U80C	0.5
A2G A35G A57C U58C U66C U74A U78C	0.1
A2G A18G A20G G33U U72G U80A	0.08
A2G A20U U43C A56U	0.27
A2G C40A A45G U48A U72C	0.08
A2G C38U A77U U78C	0.32
A2G A15G A45G	0.21
A2G C11U U25C A35U A47G A56G	0.18
A2G A20G A56G A64G	0.34
A2G A45U A56U U76A	0.08
A2G C11U A57G	0.29
A2G A28G G55U A65G U69C	0.04
A2G A15G A35U U41A	0.08
A2G A28G C29A U72A	0.36
A2G A20G G30A A35G U43C	0.12
A2G A28U U49C	0.21
A2G A5U U49A U58A	0.32
A2G A35U U60C A75U U76C	0.26
A2G A21G U43C A47G U60C U80A	0.33
A2G A18G U58C A75U	0.2
A2G A20U A21G A28C A45G	0.05

Variant	self-cleavage
A2G C40A C68A	0.04
A2G C11G U54A A65G C71G	0.09
A2G A20G U80G	0.67
A2G A20G U80C	0.92
A2G A18G U41C	0.51
A2G A18U A20G U41C U43A U72C	0.14
A2G C34U U41C U67C U78C	0.44
A2G A5U U43C A65G	0.24
A2G A64G U78C	0.47
A2G A18G C40U A64G U74C	0.36
A2G A18G A21G U49C G63A A65G	0.02
A2G C62U U80G	0.5
A2G A56G G73C	0.94
A2G C37U U43C A45U G63A U66C	0.06
A2G C11U A18U C23A C27A U72C	0.21
A2G A20G G24A U51A U80C	0.47
A2G A13U A20G A47G U58A U72C U78A	0.03
A2G G7A G61U	0.09
A2G A13U A15U A65G	0.1
A2G C32U U41G U80C	0.08
A2G C37U U54C A56G	0.24
A2G C12A G16C	0.08
A2G A64U U66A U67C U80C	0.28
A2G A13U U49A	0.46

Variant	self-cleavage
A2G A20G U48C U51C	0.27
A2G C32U U69A	0.06
A2G A18C U31C U54C C59A	0.24
A2G A21G U26C U74C	0.62
A2G A21G A28G U66C	0.13
A2G C40U A64G U76A	0.2
A2G A18U U48C	0.24
A2G A13G A18G A45G A47U A75U	0.57
A2G A28U C38U	0.16
A2G C23U U26C G36U	0.08
A2G C39A A45G	0.07
A2G C17U A18G A21C U41C	0.1
A2G A20U A45G U60A	0.08
A2G A21G A28G G63A	0.53
A2G A5U G42U U67C U80A	0.05
A2G A13U U80C	0.89
A2G A20U U60C A64G	0.05
A2G A35G G55U A64U	0.2
A2G A13G U43C U54C U69A U74A	0.09
A2G A13C U72C U74C	0.41
A2G A18G U26C	0.55
A2G A5U U31C C62U	0.2
A2G A5U U48C	0.4
A2G A21G U49G U67C	0.24

Variant	self-cleavage
A2G A45G A47G C50G G52A	0.19
A2G C14U A15G U26A A45G U54A A75G	0.1
A2G A21G A64G U69A	0.19
A2G A18G A56U C62A	0.12
A2G A20U U48G U54A	0.06
A2G C11A A13U U41A U54C G70A U72C	0.04
A2G A18U G24A C29U U72A	0.14
A2G A21C C40U G61A U66C G73A U78C	0.14
A2G C14G U26C U41G	0.1
A2G A5U A18G C29U A45G U72A	0.13
A2G C59A C71U	0.09
A2G A20C A45U U54A	0.48
A2G A15U A45G G61U	0.13
A2G A28G A56G A64G	0.17
A2G C14A C29A U48A A64U	0.12
A2G A18C A20G U51A A56U	0.08
A2G A13U A18G U76A	0.54
A2G A15G U41A U43C A56C C62G	0.12
A2G A15U A47C U54C U72A	0.05
A2G A15U A28U U54C U58C	0.22
A2G A35C A56U	0.21
A2G A35G U78C	1.22
A2G C4A A18G	1.08
A2G G6A A21G	0.09

Variant	self-cleavage
A2G A5U A21G U26A U66C	0.96
A2G A18U C23A	0.64
A2G A20U A56U C71A	0.07
A2G A18G U43C	0.4
A2G A65G U69A	0.06
A2G A13U U66C U74C	0.13
A2G A21G U48G U60C	0.34
A2G A20U A57U U66A U80A	0.43
A2G A18U U78C	0.12
A2G G7A U49A A64U	0.07
A2G A20U U48C	0.07
A2G A21G A35U	0.68
A2G A20U A21G U60C U80A	0.27
A2G A15G U26C U41A U67C A77G	0.29
A2G A13U A28G U69C	0.1
A2G C34U U66C U74C A75G	0.04
A2G A47G U51C	0.55
A2G A20G C38U	0.51
A2G A13C A64U	0.47
A2G A28U U31C A56U A64G C68A	0.06
A2G C17A C44U U54A A56G A77U	0.09
A2G A15U A21G A28G C81U	0.1
A2G A21G A45U U48C U49G A56G U67A	0.14
A2G A13G U78C	0.6

Variant	self-cleavage
A2G A56U A64G U72C	0.1
A2G A20C C40G	0.35
A2G A35C U49C	0.34
A2G A15G A21G G33C U43C U67C	0.07
A2G A18G U26C U43C U48C U58C	0.28
A2G C23A G33A U72C	0.08
A2G A56G U72C	0.51
A2G A21G U76A	0.42
A2G A64G G73U	0.95
A2G C17U A20G U41C A75G	0.25
A2G A5U A28G C29G A65G	0.42
A2G A13U G16C A18G A28U C34U A56G	0.09
A2G A20G A56G	0.47
A2G C4U U74A A75G	1.1
A2G A15U U48C U78C	0.26
A2G A18U A45G U60C	0.58
A2G A20U A21G	0.33
A2G A18G A28G G30C C39A U51C	0.06
A2G A47C A56G	0.14
A2G A18G G33A C62U U78C	0.21
A2G A20U A21G A35U U43C A56U	0.24
A2G A21G U54C A64G U78C	0.04
A2G A21G C29A A35U	0.06
A2G C12G A13G A20G U60G	0.09

Variant	self-cleavage
A2G A35C U41C A56U U69C	0.15
A2G A13U A15G C40A G70A	0.08
A2G C23G U66C U72C U78C C81U	0.03
A2G C37G U67C	0.23
A2G A18C C40A U41C U49C C50U U78C	0.06
A2G C11A U41G G52C U66C U67C	0.06
A2G C12U A15U	0.61
A2G A28G G52A	0.33
A2G A56G U78G	0.43
A2G C38U U51A U76C	0.41
A2G A5U A47G U74C	1.24
A2G C12U U25C C34U	0.14
A2G A13U A45G U54G C59U A65G U80C	0.14
A2G A5U U72A	1.28
A2G A18G C32A C38U U72C U74C	0.04
A2G A56C U72C A75U	0.15
A2G G6A A20G G36A U74C	0.47
A2G A47G U49C A57G U60C A64G	0.11
A2G A21G C23A A35G U54A G55U U78C	0.29
A2G C37G U60C U67C	0.09
A2G A13U A20G U41A A65G U69A U72C	0.07
A2G A77G U78C	0.56
A2G A28U U43C	0.43
